# The other results are listed elsewhere or left out. Repeats are few or missing, and single values can be far off.
# System: COLO829
# Experiment: cell count relative to DMSO control; melanoma cells; higher = more viable cells
# Conditions: library dose: standard library concentration; 72 h
# 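Further: cells treated in 1,536-well plates, then fixed and DAPI-stained, with nuclei counted from automated high-throughput microscope images.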
row,Structure (SMILES),cell count [%]
1,"COc1ccc(C2=N[C@@H](c3ccc(Cl)cc3)[C@@H](c3ccc(Cl)cc3)N2C(=O)N2CCNC(=O)C2)c(OC(C)C)c1 [Nutlin-3] + CCCCCCCCc1ccc(CCC(N)(CO)CO)cc1 [fingolimod] (first compound 0.5 µM, partner dose 10 µM)",36.4
2,"CC(C)C[C@H](NC(=O)[C@H](Cc1ccccc1)NC(=O)c1cnccn1)B(O)O [Bortezomib] + O=C(Nc1ccccc1)c1cc([N+](=O)[O-])ccc1Cl [GW9662] (first compound 0.005 µM, partner dose 10 µM)",5.97
3,"Cc1cc(Nc2cc(N3CCN(C)CC3)nc(/C=C/c3ccccc3)n2)n[nH]1 + O=C(O)[C@@H]1[O][Sb](=[O])([O][Sb]2(=[O])[O][C@H]([C@H](O)CO)[C@H](O)[C@H](C(=O)O)[O]2)[O][C@H]([C@H](O)CO)[C@@H]1O [stibogluconate] (first compound 0.2 µM, partner dose 10 µM)",81.9
4,"COc1ccc(C2=N[C@@H](c3ccc(Cl)cc3)[C@@H](c3ccc(Cl)cc3)N2C(=O)N2CCNC(=O)C2)c(OC(C)C)c1 [Nutlin-3] + O=C(O)C(=O)Nc1sc2c(c1C(=O)O)CCNC2 [TCS401] (first compound 0.5 µM, partner dose 8.33333 µM)",66.6
5,"Cc1cc(Nc2cc(N3CCN(C)CC3)nc(/C=C/c3ccccc3)n2)n[nH]1 + O=C(O)c1ccc(-c2c[nH]c3ncc(-c4ccccc4)cc23)cc1C1CCCC1 [GSK650394] (first compound 0.2 µM, partner dose 0.8 µM)",86.4
6,"Cc1cc(Nc2cc(N3CCN(C)CC3)nc(/C=C/c3ccccc3)n2)n[nH]1 + C#Cc1cccc(Nc2ncnc3cc(OCCOC)c(OCCOC)cc23)c1 [erlotinib] (first compound 0.2 µM, partner dose 4 µM)",59
7,"Cc1cn(-c2cc(NC(=O)c3ccc(C)c(Nc4nccc(-c5cccnc5)n4)c3)cc(C(F)(F)F)c2)cn1 [nilotinib] + COc1cc2c(Oc3ccc4[nH]c(C)cc4c3F)ncnc2cc1OCCCN1CCCC1 [cediranib] (first compound 1 µM, partner dose 2 µM)",128
8,"Cc1cn(-c2cc(NC(=O)c3ccc(C)c(Nc4nccc(-c5cccnc5)n4)c3)cc(C(F)(F)F)c2)cn1 [nilotinib] + C=C(c1ccc(C(=O)O)cc1)c1cc2c(cc1C)C(C)(C)CCC2(C)C [Bexarotene] (first compound 1 µM, partner dose 10 µM)",97.3
9,"Cc1cc(Nc2cc(N3CCN(C)CC3)nc(/C=C/c3ccccc3)n2)n[nH]1 + C=C(c1ccc(C(=O)O)cc1)c1cc2c(cc1C)C(C)(C)CCC2(C)C [Bexarotene] (first compound 0.2 µM, partner dose 10 µM)",56
10,"Cc1cn(-c2cc(NC(=O)c3ccc(C)c(Nc4nccc(-c5cccnc5)n4)c3)cc(C(F)(F)F)c2)cn1 [nilotinib] + NC(=O)c1ccc(N(C(N)=O)c2c(F)cccc2F)nc1-c1ccc(F)cc1F [VX702] (first compound 1 µM, partner dose 2 µM)",111
11,"COc1ccc(C2=N[C@@H](c3ccc(Cl)cc3)[C@@H](c3ccc(Cl)cc3)N2C(=O)N2CCNC(=O)C2)c(OC(C)C)c1 [Nutlin-3] + CC1(C)NC(=O)N(c2ccc([N+](=O)[O-])c(C(F)(F)F)c2)C1=O [nilutamide] (first compound 0.5 µM, partner dose 5 µM)",64
12,"Cn1c(=O)n(-c2ccc(C(C)(C)C#N)cc2)c2c3cc(-c4cnc5ccccc5c4)ccc3ncc21 + CN1CCN(c2ccc3nc(-c4c(N)c5c(F)cccc5[nH]c4=O)[nH]c3c2)CC1 [Dovitinib] (first compound 0.02 µM, partner dose 0.5 µM)",65.2
13,"Cn1c(=O)n(-c2ccc(C(C)(C)C#N)cc2)c2c3cc(-c4cnc5ccccc5c4)ccc3ncc21 + CS(=O)(=O)CCNCc1ccc(-c2ccc3ncnc(Nc4ccc(OCc5cccc(F)c5)c(Cl)c4)c3c2)o1 [lapatinib] (first compound 0.02 µM, partner dose 4 µM)",62.3
14,"Cc1cn(-c2cc(NC(=O)c3ccc(C)c(Nc4nccc(-c5cccnc5)n4)c3)cc(C(F)(F)F)c2)cn1 [nilotinib] + Cn1cnc2c(F)c(Nc3ccc(Br)cc3Cl)c(C(=O)NOCCO)cc21 [selumetinib] (first compound 1 µM, partner dose 0.075 µM)",73.3

# — the supplement of paper PMC4604168 (melanoma cell lines)
